From PubChem BioAssay AID2546 (National Center for Advancing Translational Sciences (NCATS), 2010)
About 11,000 (3.5%) of roughly 310,000 compounds were called active. Inconclusive means that the source gave no clear call. Such entries were picked first, then a sample of the others. Calls follow the shape of the dose curve; as a rule, active = well fitted inhibition curve with a large enough effect; inconclusive = small, poorly fitted or top-dose-only effect, or effect the other way; inactive = flat fitted curve, though single readings scatter. No potency is given beside an inconclusive call; the fits are too rough.

experiment: VP16 counterscreen qHTS for inhibitors of ROR gamma transcriptional activity; details: Drosophila S2 Gal4-VP16 UAS-luciferase, luminescence, 20 h; activity, negative = inhibition: at 53.6 µM (top of the series);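 also: Gal4-VP16 expression switched on by copper sulfate through the metallothionein promoter; nearly all actives have a fitted effect of over 50% in size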
% is scaled to controls: 0 for no effect and ±100 for the full control effect; potency is read from the fitted curve at half-maximal effect; tags tell the direction and shape of the fitted curve.

| SMILES | activity, negative = inhibition | Potency |
| --- | --- | --- |
| O=C1CC(c2ccc3c(c2)OCO3)c2cc(O)ccc2O1 (stereo not drawn) | inactive: -2.92% | – |
| Cc1nc2ccccc2n1Cc1ccccc1 | – | inconclusive [inhibitor, single point] |
| CCN(CC)c1ccc(NC(=O)c2ccc(=O)[nH]c2)cc1S(=O)(=O)Nc1ccccc1OC | – | inconclusive [inhibitor, single point] |
| COCCNc1oc(COc2cccc(C)c2)nc1C#N | – | inconclusive [activator, full curve] |
| COc1ccc(CNC(=O)CCCn2c(SCC#N)nc3cc4c(cc3c2=O)OCO4)cc1 | inactive: -13.4% | – |
| COc1ccc(C(=O)Nc2ccc3[nH]ncc3c2)cc1OC | – | inconclusive [activator, single point] |
| COCCn1c(C)cc(C(=O)Cn2nc(C(=O)O)c3ccccc3c2=O)c1C | – | inconclusive [inhibitor, partial curve, poor fit] |
| O=C(CCl)N=c1sccn1Cc1ccccc1Cl | – | inconclusive [inhibitor, single point] |
| C=CC[n+]1c(-c2ccc(OC)c(OC)c2)csc1NNC(=O)Nc1ccccc1 | – | inconclusive [inhibitor, single point] |
| Cc1cc(C)c2sc(N(CCN(C)C)C(=O)CCS(=O)(=O)c3ccccc3)nc2c1 | – | inconclusive [inhibitor, single point] |
| Clc1cccc(N=C2NN=C(c3ccc4c(c3)OCCO4)CS2)c1 | – | inconclusive [inhibitor, full curve, poor fit] |
| Oc1cccc(/C=N/NC(=S)NCCN2CCOCC2)c1O | – | inconclusive [inhibitor, single point] |
| O=C(N/N=C1/C(=O)c2cccc3cccc1c23)c1ccc(Cl)cc1 | – | inconclusive [inhibitor, single point] |
| CC(C)(C)c1ccc2c(c1)OC(C(=O)N/N=C\c1ccccn1)CO2 (stereo not drawn) | – | active: 17.8 µM |
| CN(c1ccccc1)S(=O)(=O)c1cccc(C(=O)Nc2nccs2)c1 | – | inconclusive [inhibitor, single point] |
| COc1ccccc1N1CCN(CC(=O)Nc2ccc(Cl)c(C(F)(F)F)c2)CC1 | – | inconclusive [inhibitor, single point] |
| COC(=O)Cc1ccc(N(Cc2ccccc2F)S(=O)(=O)c2ccc(C)cc2)cc1 | – | inconclusive [inhibitor, partial curve] |
| O=C1C2C3C=CC(C3)C2C(=O)N1CCN1CCN(S(=O)(=O)/C=C/c2ccccc2)CC1 (stereo not drawn) | inactive: -2.59% | – |
| Cc1ccc(-c2[nH]ncc2/C=N/n2c(COc3ccccc3C)nc3ccccc3c2=O)cc1 | – | inconclusive [inhibitor, single point] |
| O=C(CCl)N(Cc1cc(=O)[nH]c2ccccc12)c1ccccc1 | – | inconclusive [inhibitor, single point] |
| COc1ccc(CCNC(=O)C(=O)NCC2OCCN2S(=O)(=O)c2ccc(Br)cc2)cc1 (stereo not drawn) | – | inconclusive [inhibitor, single point] |
| O=C(O)c1ccnc(SCC(=O)c2ccccc2)c1 | – | inconclusive [inhibitor, partial curve] |
| Cc1cccc(N2CC(C(=O)O)CC2=O)c1C (stereo not drawn) | – | inconclusive [activator, single point] |

| SMILES | activity, negative = inhibition | Potency |
| --- | --- | --- |
| O=C(N/N=C/c1cccnc1)/C(=C\c1cccs1)NC(=O)c1ccccc1 | – | inconclusive [activator, single point] |
| CCOC(=O)CSc1c(-c2ccccc2)c2cc(Cl)ccc2[nH]c1=O | – | inconclusive [inhibitor, single point] |
| COc1ccc2c(C(=O)CCl)c[nH]c2c1 | – | active: 17.8 µM |
| Cc1ccc(NS(=O)(=O)c2ccc(C(=O)N3CCCCCCC3)cc2)cc1 | – | inconclusive [inhibitor, single point] |
| O=C(NC(=S)NCC1CCCO1)c1ccc(Cl)cc1 (stereo not drawn) | – | inconclusive [inhibitor, single point] |
| O=[N+]([O-])c1ccc(S(=O)(=O)Nc2nc3ccccc3nc2Nc2ccccc2)cc1 | – | inconclusive [inhibitor, single point] |
| Cc1onc(-c2c(F)cccc2Cl)c1C(=O)NC1CCCCCC1 | inactive: -4.35% | – |
| OC(CN1CCNCC1)Cn1c2ccc(Br)cc2c2cc(Br)ccc21 (stereo not drawn) | – | inconclusive [inhibitor, single point] |
| O=C(Cc1ccc(-c2ccccc2)cc1)NNC(=S)NCc1ccco1 | – | inconclusive [inhibitor, full curve, poor fit] |
| CC1CCN(S(=O)(=O)c2ccccc2[N+](=O)[O-])CC1 | – | inconclusive [activator, single point] |
| CC(=O)N1[C@H](C)C=C[C@]1(Cc1ccccc1)C(=O)NCc1cc(F)cc(C(F)(F)F)c1 | – | inconclusive [activator, partial curve, poor fit] |
| CCC(CC)C(=O)NCc1ccc2c(c1)cc(C)n2C | inactive: -3.65% | – |
| Cc1cccc(-c2n[nH]c(=S)n2/N=C/c2ccco2)c1 | – | inconclusive [inhibitor, single point] |
| Clc1nnc(N/N=C/c2ccccc2)c2ccccc12 | – | inconclusive [inhibitor, partial curve, poor fit] |
| O=C(NC(=S)Nc1ccc(C(F)(F)F)cc1)c1csnn1 | – | inconclusive [inhibitor, single point] |
| COc1ccc(Nc2nc(N)c([N+](=O)[O-])c(NC3CCCCC3)n2)cc1 | – | inconclusive [inhibitor, single point] |
| O=C(CN1CCN(c2ncccn2)CC1)N1CCCc2c1c(=O)oc1ccc(O)cc21 | inactive: -12.3% | – |
| OCCC1CN(Cc2cccn2-c2ncccn2)CCN1Cc1ccccc1 (stereo not drawn) | – | inconclusive [activator, single point] |
| COc1ccc(C)c2sc(N(CCN(C)C)C(=O)/C=C/c3cccs3)nc12 | – | inconclusive [inhibitor, single point] |
| CC(=O)c1ccccc1Oc1nc(CN2CCOCC2)nc2scc(-c3cccs3)c12 | – | inconclusive [inhibitor, single point] |
| CCCc1ccc(-c2ccc(C(=O)O)cc2)nc1 | – | inconclusive [inhibitor, partial curve] |
| Cc1ccc(/C=C2\SC(=S)N(CCCC(=O)Nc3ccccc3C(=O)O)C2=O)cc1 | – | inconclusive [inhibitor, single point] |
| CNC(=O)c1[nH]cnc1C(=O)N[C@@H](CC(C)C)C(=O)OCc1ccccc1 | – | inconclusive [inhibitor, single point] |

| SMILES | activity, negative = inhibition | Potency |
| --- | --- | --- |
| CCC1CCCCN1C(=S)Nc1ccc(SC(F)F)cc1 (stereo not drawn) | – | inconclusive [inhibitor, single point] |
| Cc1ccc(/C=N/NC(=O)c2nnn(-c3nonc3N)c2-c2ccccc2)o1 | – | inconclusive [inhibitor, single point] |
| CCOC(=O)c1cnc2ccccc2c1NCc1ccco1 | – | inconclusive [inhibitor, single point] |
| NC(=O)N/N=C\c1ccc([N+](=O)[O-])o1 | inactive: -6.86% [at 17 µM] | – |
| COC(=O)Cc1[nH]nc2c1C(C1C=CCCC1)C(C#N)=C(N)O2 (stereo not drawn) | inactive: -17.8% | – |
| CCOC(=O)C1=C(C)NC(=O)C1CC(=O)Nc1ccccc1 (stereo not drawn) | – | inconclusive [inhibitor, single point] |
| C=CCOC(=O)/C(=C/c1ccco1)NC(=O)/C=C/c1ccccc1 | inactive: 10.7% | – |
| CCc1nn(CCCC(=O)NCc2ccccc2C)c(=O)c2cc3occc3n12 | – | inconclusive [inhibitor, single point] |
| COC(=O)COc1cccc(NS(=O)(=O)c2ccc(NC(C)=O)cc2)c1 | – | inconclusive [inhibitor, single point] |
| COc1cc(C2NC(C(=O)O)CS2)ccc1OCc1ccccc1C#N (stereo not drawn) | – | inconclusive [activator, single point] |
| COc1ccc(S(=O)(=O)NC(CC(=O)NCC2CCCO2)c2ccco2)cc1 (stereo not drawn) | – | active: 22.4 µM |
| COc1ccc(CN(Cc2ccc(C(=O)O)cc2)C(=S)Nc2ccccc2Cl)cc1OC | inactive: -5.03% | – |
| O=C(c1cccs1)N1CCN(S(=O)(=O)c2ccccc2)CC1 | inactive: 11.1% | – |
| COc1nc(-c2ccccc2)c2c(c1C#N)CC(C)(C)OC2 | inactive: 15.1% | – |
| On1c(-c2ccccc2)nc2ncccc21 | inactive: 4.3% | – |
| C/C(=N\NC(=O)c1cccc(S(=O)(=O)N2CCCC2)c1)c1cccs1 | – | inconclusive [inhibitor, single point] |
| COc1ccc(N(C(=O)c2snc(C(N)=O)c2N)C(C(=O)NC2CCCC2)c2ccc(F)cc2)c(OC)c1 (stereo not drawn) | – | inconclusive [activator, partial curve] |
| CC(C)Cn1c(-c2csc3c2CCCC3)n[nH]c1=S | – | active: 5.01 µM |
| C=C1C(=O)C23C(O)C1CCC2[C@]12COC3(O)C(O)C1C(C)(C)CC[C@H]2O (stereo partly drawn) | – | active: 2.51 µM |
| CCCOc1ccc(S(=O)(=O)NCc2ccc(OC)cc2)cc1 | – | inconclusive [inhibitor, single point] |
| CC(C)(C)c1ccc(C(=O)Nc2nnc(C3=COCCO3)o2)cc1 | – | inconclusive [inhibitor] |
| FC(F)(F)c1ccccc1NC(=S)N1CCN(Cc2ccc3c(c2)OCO3)CC1 | – | inconclusive [inhibitor, single point] |
